# Source: PubChem BioAssay AID1963576 (National Center for Advancing Translational Sciences (NCATS), 2024)
# About 60 (0.1%) of roughly 46,000 compounds were called active. Another 3% or so got no clear call; they are omitted. Calls follow the shape of the dose curve; as a rule, active = well fitted inhibition curve with a large enough effect; inconclusive = small, poorly fitted or top-dose-only effect; inactive = no such curve, though single readings can be large or run the other way. This is one part of the list.
# Assay: Primary qHTS assay for Inhibitors of ovarian cancer metastasis using an organotypic tumor microenvironment (TME) model. Also: nearly all actives have a fitted effect of over 65% in size.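 As to activity change, negative = inhibition: plate controls were DMSO wells for no effect and tomatine positive control wells for full effect.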
# Details: SKOV3ip1-GFP adhesion/invasion on 3D omental model, fluorescence; series mostly up to 45.8 µM; activity change, negative = inhibition: at the top concentration
# Procedure, shortened: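 A 3D layer of primary human omental fibroblasts, mesothelial cells, fibronectin and collagen I, grown 48 hr, received SKOV3ip1-GFP cells in serum-free medium plus compounds at 0.36-46 umol/L. After 2 hr RT and 16 hr 37 C, fixed adherent GFP cells were counted; normalized to DMSO and tomatine.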
Compound,outcome,"activity change, negative = inhibition"
O=C(NCc1ccc(Cl)cc1)c1ccc2oc(=O)n(Cc3ccccc3)c2c1,inactive,–
CCOC(=O)Cn1c(=O)oc2cc(S(=O)(=O)N3CCCC(C)C3)ccc21 (centres undefined),–,inactive: 14%
CCc1cnc2c(c1SCC(=O)Nc1ccc(OC)c(OC)c1)c(=O)n(C)c(=O)n2C,–,inactive: 2.78%
CC1CCCN(C(=O)CCS(=O)(=O)c2cc3c(cc2Cl)NC(=O)CO3)C1 (centres undefined),–,inactive: 60.1%
COc1cccc(CNC(=O)Cn2nc3c(cc2=O)CCCC3)c1OC,inactive,–
CCCC1=Nc2cc(C(=O)NCC(C)c3ccccc3)ccc2Sc2ccccc21 (centres undefined),inactive,–
CCOc1ccc(CNC(=O)Cn2cc3c(n2)-c2c(oc(C(=O)N4CCCC4)c2C)CC3)cc1,–,inactive: -2.45%
CC(=O)N1c2c(cc(Br)cc2S(=O)(=O)Nc2ccc(OC(F)(F)F)cc2)CC1C (centres undefined),–,inactive: 14.8%
COc1ccc(OCC(=O)Nc2nc(-c3ccc(Br)cc3)ns2)cc1,inactive,–
CCc1cccc(C)c1NC(=O)NC1COc2ccccc2C1 (centres undefined),inactive,–
COc1ccc(NC(=O)NCc2c(-n3cccc3)sc3c2CCCC3)c(OC)c1,–,inactive: 1.51%
CCNc1nc(NC(C)CC)nc(Oc2ccc(OCC)nn2)n1 (centres undefined),inactive,–
COc1ccccc1CN(Cc1ccco1)c1cnc(S(C)(=O)=O)nc1C(=O)Nc1ccccc1Cl,–,inactive: -1.04%
CCOc1ccc(CCNC(=O)CCCc2nnc3n(C)c(=O)c4sccc4n23)cc1OCC,–,inactive: 2.87%
Cc1c(C(=O)OC2CCC(C)CC2)[nH]c2c1C(=O)CC(c1ccccc1Cl)C2 (centres undefined),inactive,–
CCOC(=O)c1noc2ncn(Cc3cccc(C#N)c3)c(=O)c12,–,inactive: -3.45%
Cc1cc(Cl)ccc1NC(=O)CN1C(=O)COc2ccc(S(=O)(=O)N3CCC(C)CC3)cc21,–,inactive: -25.8%
O=C(CCCn1c(=O)[nH]c2ccsc2c1=O)N1CCN(c2cccc(C(F)(F)F)c2)CC1,–,inactive: 17.5%
O=C(Nc1ccc(Cl)cc1)c1cc(S(=O)(=O)N2CCCc3ccccc32)ccc1F,inactive,–
CCOC(=O)Cc1ccc(NC(=O)N(C(C)C)C2CCN(C(C)=O)CC2)cc1,–,inactive: -7.61%
COc1ccc(NCc2cc3cc4c(cc3n(CC(=O)Nc3ccccc3)c2=O)OCO4)cc1,–,inactive: 3.94%
Cc1ccc(-c2cc(C(=O)Nc3c(C(=O)c4ccc(C)c(F)c4)oc4ccccc34)no2)cc1,–,inactive: 4.78%
CCOCCc1nn2c(=O)cc(COC(=O)c3cccc(C)c3)nc2s1,–,inactive: -9.85%
CCOC(=O)c1c(NC(=O)CSc2cn(CCNC(=O)c3c(F)cccc3F)c3ccccc23)sc2c1CCCC2,inactive,–

Compound,outcome,"activity change, negative = inhibition"
Cc1ccc(Cn2c(CN3CCC(C(=O)NCC(C)c4ccccc4)CC3)cc3ccccc32)cc1 (centres undefined),–,inactive: -5.01%
C[C@](N)(Cc1ccc(O)c(O)c1)C(=O)O,–,inactive: -0.559%
CCN(CC)CCOC(=O)c1ccc(NC(=O)c2cc3cccc(OC)c3oc2=O)cc1,–,inactive: -2.18%
COc1ccc(Cl)cc1NC(=O)Cn1nnc(C(=O)NCc2ccc3c(c2)OCO3)c1N,–,inactive: -4.22%
COC(=O)c1sccc1S(=O)(=O)N1CCN(c2ccc(C(C)=O)cc2)CC1,–,inactive: 0.627%
Cn1c(=O)c2c(n3c4ccccc4nc13)NC(=O)CC2c1cccc(Cl)c1 (centres undefined),–,inactive: -3.87%
CC(=O)c1ccc(NC(=O)c2cc(C3CC3)nc3c2c(C)nn3-c2ccc(C)cc2)cc1,–,inactive: -32.6%
Cc1ccc(Cl)cc1N1CCN(S(=O)(=O)c2ccc(-c3cnc(C4CC4)o3)cc2)CC1,inactive,–
COc1ccc(S(=O)(=O)NCCc2sc(-c3ccccc3)nc2C)cc1F,–,inactive: 13.7%
COc1ccc(NC(=O)CN2CCN(c3ccccc3F)CC2)c(OC)c1,–,inactive: 3.98%
CCCOc1ccc(-c2cccc(NS(=O)(=O)c3ccc(CC)cc3)c2)nn1,–,inactive: 1.39%
COc1cc2c(C(=O)N3CCN(c4cc(Cl)ccc4C)CC3)cn(CC(C)C)c(=O)c2cc1OC,–,inactive: -9.23%
COc1ccc(S(=O)(=O)NCCc2sc(-c3cccc(F)c3)nc2C)cc1,–,inactive: -8.13%
O=C(Cn1cc(S(=O)(=O)N2CCN(c3ccccc3F)CC2)c2ccccc2c1=O)Nc1ccc(F)cc1Cl,–,inactive: 37.8%
O=C(Nc1ccccc1F)C(Cc1ccccc1)N1Cc2ccccc2C1=O (centres undefined),–,inactive: -1.03%
CC(C)c1ccc(NC(=O)c2ccc(F)c(S(=O)(=O)N3CCN(c4ccccc4F)CC3)c2)cc1,–,inactive: -18.8%
CC(C)c1ccc(NC(=O)CN2C(=O)CCc3cc(S(=O)(=O)N4CCOCC4)ccc32)cc1,inactive,–
COc1ccc(C(=O)N2CCN(C(=O)COc3ccc(C)cc3)CC2)cc1OC,–,inactive: -9.81%
O=C(Nc1ccc(F)cc1F)N1CCc2c(sc3c2CCCC3)C1c1ccc(F)cc1 (centres undefined),–,inactive: 1.18%
COCCn1c(=NC(=O)c2ccc3c(c2)OCCO3)sc2cc(NC(C)=O)ccc21,inactive,–
CCc1ccc(S(=O)(=O)n2ccnc2)cc1,–,inactive: 1.43%
Cc1ccc(-c2nn3c(=O)cc(CN4CCN(C(=O)c5ccc(C(C)(C)C)cc5)CC4)nc3s2)cc1,inactive,–
COc1cc(NS(=O)(=O)c2ccc(NC(=O)c3ccc(OC)c(Br)c3)cc2)nc(OC)n1,–,inactive: -0.314%
CCCSCCCNC(=O)CN1C(=O)CCn2nc(-c3cn(C)c4ccccc34)cc21,–,inactive: 6.91%

Compound,outcome,"activity change, negative = inhibition"
CCC(C)NC(=O)CCC(=O)NNc1nc2ccccc2c2nc(C)nn12 (centres undefined),inactive,–
Cc1ccc(NC(=O)CSc2nccn2Cc2ccc3c(c2)OCO3)c(C)c1,–,inactive: 7.81%
Cc1cc(C)c(NC(=O)CN(C)S(=O)(=O)c2ccc3c(c2)c(=O)n(C)c(=O)n3C)c(C)c1,inactive,–
CCc1cccc(NC(=O)C(Cc2ccccc2)NS(=O)(=O)c2ccc3c(c2)c(=O)n(C)c(=O)n3C)c1 (centres undefined),–,inactive: -8.83%
COc1cc(Cl)c(C)cc1Nc1nnc(-n2nc(C)cc2C)c2ccccc12,inactive,–
COc1ccc(-c2nc3sc(CCNS(=O)(=O)c4c(C)cc(C)cc4C)c(C)n3n2)cc1,–,inactive: -10.8%
COc1ccc(OCc2nc(C#N)c(NCc3ccccc3Cl)o2)cc1,–,inactive: 16.5%
COc1cccc(NC(=O)C2CCCN2S(=O)(=O)c2ccc3nc(-c4ccccc4)[nH]c3c2)c1 (centres undefined),–,inactive: 1.31%
N[C@H]1CN(c2c(F)cc3c(=O)c(C(=O)O)cn(C4C[C@@H]4F)c3c2Cl)CC12CC2 (some centres undefined),–,inactive: -13%
COc1cccc(N2CCN(C(=O)c3c4c(nc5ccccc35)C(=O)N(C3CCCCC3)C4)CC2)c1,–,inactive: -14.8%
COc1ccc(NS(=O)(=O)c2ccc3c(c2)NC(=O)CCS3)c(OC)c1,inactive,–
CCC(C(=O)Nc1cc(C)ccc1OC)n1nnc(C(=O)OC)c1C(=O)OC (centres undefined),–,inactive: 6.16%
CCOc1ccc(C2c3c(oc4cc(C)c(C)cc4c3=O)C(=O)N2c2ccccn2)cc1 (centres undefined),–,inactive: 2.3%
CCc1ccc(S(=O)(=O)N(C(C)=O)c2ccc3oc4c(c3c2)CCCC4)cc1,–,inactive: -4.8%
CCOc1ccc(C(=O)Nc2ccc3c(c2)N(C(C)=O)CCC3)cc1OCC,–,inactive: -5.43%
COc1ccccc1N1CCN(S(=O)(=O)c2ccc(-n3cnnn3)cc2)CC1,–,inactive: -2.01%
CCOC(=O)N1CCc2c(sc3c2c(=O)n(-c2ccc(CC)cc2)c(=O)n3Cc2cccc(OC)c2)C1,inactive,–
CC(=O)Nc1cccc(NC(=O)Cc2csc(COc3cccc(C)c3)n2)c1,–,inactive: 2.25%
COc1ccccc1CNC(=O)CCC(=O)N1Cc2ccccc2Oc2ncccc21,–,inactive: -6.22%
CN(C)c1ccc(CN(Cc2ccco2)C(=O)c2ccc(F)cc2)cc1,–,inactive: -7.88%
Cc1ccc(C)c(S(=O)(=O)n2nc(C)c(S(=O)(=O)N3CCC(C)CC3)c2C)c1,–,inactive: 59.3%
Cc1ccc(-n2nc3c(N4CCC(C(=O)N(C)Cc5ccccc5)CC4)nnc(C)c3c2C)cc1,–,inactive: 5.23%
CC(=O)N1c2ccc(S(=O)(=O)NCC3CCC(C(=O)Nc4cc(C)cc(C)c4)CC3)cc2CC1C (centres undefined),–,inactive: 6.27%
CC(C)(C)OC(=O)N1CCC(c2c(C(=O)N3CCOCC3)cnn2-c2ccccc2Cl)CC1,–,inactive: 4.45%

Compound,outcome,"activity change, negative = inhibition"
COc1ccccc1CNC(=O)CCCn1c(=O)c2cccn2c2ccccc21,–,inactive: 11.9%
Cc1cc2c(cc1C)-n1c(-c3ccccc3)c3c(=O)n(C)c(=O)n(C)c3c1C(c1ccco1)N2 (centres undefined),inactive,–
COc1ccc2c(c1)c1c(c(=O)n(-c3ccc(OC)c(OC)c3)c(=O)n1Cc1ccc(C)cc1)n2C,–,inactive: 51%
COc1ccc(C2CC(=O)c3cnc4c(-c5ccccc5)c(C)nn4c3C2)c(OC)c1 (centres undefined),inactive,–
CCCCNC(=O)CCCn1c(=O)c2ccccc2n(Cc2ccc(Cl)cc2)c1=O,inactive,–
COc1ccc(Cc2nc3ccc(C(=O)NCc4cc(Br)ccc4OC)cc3o2)cc1,–,inactive: -7.39%
O=C(Cc1ccccc1)Nc1cc(-c2nc3cc(Cl)ccc3o2)ccc1Cl,–,inactive: 82.8%
N#Cc1ccccc1S(=O)(=O)N1CCC(Oc2ccc(-n3cnnn3)cc2)CC1,–,inactive: 4.25%
Fc1ccc(-c2noc3ncnc(N4CCCCC4)c23)cc1,–,inactive: -3.23%
COc1ccc(-c2nc(SCC(=O)Nc3cccc(C(C)=O)c3)n[nH]2)cc1,–,inactive: 11.5%
CCc1c(C)nc2nncn2c1Nc1cccc(C)c1,inactive,–
Cc1ccccc1CNC(=O)C1CCCN(c2nnc(-n3c(C)ccc3C)s2)C1 (centres undefined),–,inactive: 13.1%
COc1ccccc1N(C)C(=O)Cn1c(=O)oc2cc(S(=O)(=O)N3CCCC3)ccc21,inactive,–
O=C(O)CCNC(=O)c1ccc(N=Nc2ccc(O)c(C(=O)O)c2)cc1,–,inactive: 18.7%
COc1ccc(-c2cc(C(=O)OCC(=O)c3cccc(OC)c3)c3cccc(Cl)c3n2)cc1,–,inactive: -6.51%
CCOC(=O)c1c(NC(=O)c2cc(=O)c3c(C)cc(C)cc3o2)sc2c1CCC2,–,inactive: 1.79%
COc1ccc(NC(=O)C2CCN(c3nc(-c4ccc(OC)c(OC)c4)no3)CC2)cc1Cl,–,inactive: -11.6%
Cc1ccc(C)c(NC(=O)Cn2nnc(C(=O)NCc3ccco3)c2N)c1,–,inactive: -0.521%
CNC(=O)C1CCN(C(=O)N2CC(C)Oc3ccc(C)cc32)CC1 (centres undefined),–,inactive: 20%
COc1ccc(CCC(=O)NCc2nc3cccnc3n2Cc2ccc(OC)cc2)cc1,–,inactive: -9.1%
CCOC(=O)c1c(NC(=O)CS(=O)(=O)c2ccc(Cl)cc2)sc2c1CCCC2,–,inactive: -2.92%
CCOC(=O)c1c(C)[nH]c(C)c1S(=O)(=O)N1CCN(c2ccccc2OC)CC1,inactive,–
